Source: the supplement of paper PMC4723716
± gives the uncertainty stated by the source. In all, about 9,900 compounds were measured (“viability index relative to DMSO control”: median about 1, lowest 2% from about 0.85 on). The list shows a part of the results.

Test system: Plasmodium falciparum NF54 stage V gametocytes
Experiment: viability index relative to DMSO control (fraction); higher = less gametocyte killing
Conditions: 2.5 µM, library set: Broad Institute DOS, incubation time: 72 h
Summary of the method: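 P. falciparum NF54 stage V gametocytes in serum-free screening medium (0.75% gametocytemia, 1.25% hematocrit, 10 µl) were incubated with compound at 2.5 µM in 1,536-well plates for 72 hr at 37°C under low oxygen. Then 3 µl of 2.5 µM MitoTracker Red CMXRos plus 0.13% saponin was added for one to two hours. One field per well was imaged, 20–70 µm2 red particles were counted, and the viability index was the count divided by the plate mean of DMSO wells.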

SMILES | viability index
COc1ccc(CN(C)C[C@H]2OCCCC[C@H](C)Oc3ccc(NC(=O)C4CCCCC4)cc3C(=O)N([C@@H](C)CO)C[C@@H]2C)cc1 | 1.08 ± 0.023
N#C[C@@H]1[C@@H](c2ccccc2-c2cccc(F)c2)[C@@H](CO)N1C(=O)NC1CCCCC1 | 1 ± 0.061
C[C@@H]1COCc2cn(nn2)CC[C@H](C)C(=O)N1 | 1.04 ± 0.011
O=C(C[C@@H]1CC[C@H](NC(=O)c2cccnc2)[C@@H](CO)O1)NCc1ccc(Cl)c(Cl)c1 | 0.911 ± 0.023
C[C@H]1CN([C@@H](C)CO)C(=O)CCCn2nncc2CO[C@@H]1CN(C)C(=O)Nc1ccc(-c2cccs2)cc1 | 1.08 ± 0.14
CO[C@@H]1CN(C)C(=O)c2cc(NC(C)=O)ccc2OC[C@H](C)N(S(C)(=O)=O)C[C@H]1C | 1.059 ± 0.0024
CCCC(=O)Nc1ccc2c(c1)C(=O)N(C)C[C@H](OC)[C@H](C)CN(C(=O)c1ccccn1)[C@H](C)CO2 | 1.04 ± 0.044
CC(C)(C)S(=O)N1Cc2cc(C(=O)NCc3ccc(Oc4ccccc4)cc3)nc(-c3cccc(-c4cccc(F)c4)c3)c2[C@@H]1CCO (stereo not given in full) | 1.02 ± 0.034
COc1cccc(S(=O)(=O)N2CC[C@@H]3[C@H]2c2cc(C#Cc4cccnc4)ccc2N[C@@H]3CO)c1 | 1.06 ± 0.034
Cc1ccccc1S(=O)(=O)Nc1ccc2c(c1)C(=O)N(C)[C@@H]1CC[C@H](CC(=O)O)O[C@H]1CO2 | 0.912 ± 0.21
CNC[C@H]1OCc2cnnn2CCCC(=O)N([C@@H](C)CO)C[C@H]1C | 1.12 ± 0.055
CCCNC(=O)N1CC(=O)N2[C@H](CO)[C@@H](c3ccc(C#Cc4cccc(OC)c4)cc3)[C@H]2C1 | 0.936 ± 0.075
COc1cccc(-c2cn(CC[C@H]3CC[C@@H](NS(=O)(=O)c4ccccc4Cl)[C@@H](CO)O3)nn2)c1 | 0.991 ± 0.025
CO[C@@H]1CN(C)C(=O)c2cc(NC(=O)NC(C)C)ccc2OC[C@@H](C)N(C(=O)CN(C)C)C[C@@H]1C | 1.05 ± 0.023
CO[C@H]1CN(C)C(=O)c2cccc(C#N)c2OCC[C@@H]2CC[C@H](OC)[C@@H](CN(C)C(=O)[C@H]1C)O2 | 1.05 ± 0.052
O=C(C[C@H]1CC[C@@H]2NC[C@@H](O)COC[C@H]2O1)NCCN1CCCCC1 | 1.05 ± 0.031
COCC#Cc1ccc([C@@H]2[C@@H](CO)N3C(=O)CN(C(=O)Nc4ccccc4F)C[C@@H]23)cc1 | 1.02 ± 0.025
Cn1cnc(S(=O)(=O)N2C[C@H](O)COC[C@@H]3O[C@@H](CC(=O)NCc4cccc(F)c4)CC[C@H]32)c1 | 1.03 ± 0.071
O=C(CN1CCOCC1)N1CC(=O)N2[C@H](CO)[C@H](c3ccc(-c4cccc(F)c4)cc3)[C@@H]2C1 | 1.04 ± 0.082
C[C@H]1CN([C@@H](C)CO)C(=O)c2cc(/C=C/c3ccccc3)cnc2O[C@H]1CN(C)S(=O)(=O)c1ccccc1F | 1.03 ± 0.12
C[C@H](CO)N1C[C@H](C)[C@H](CN(C)C(=O)c2cc(Cl)cc(Cl)c2)OCc2ccccc2-c2ccccc2C1=O | 1.04 ± 0.066
O=C(c1ccccc1F)N1C[C@@H]2[C@H](c3ccccc31)[C@H](CO)N2Cc1ccc2c(c1)OCO2 | 0.988 ± 0.11
Cc1cccc(S(=O)(=O)N2C[C@H](O)COC[C@@H]3O[C@@H](CC(=O)Nc4ccccc4)CC[C@H]32)c1 | 1.09 ± 0.065

SMILES | viability index
CN1C(=O)c2cc(NC(=O)Cc3cccs3)ccc2OC[C@H]2O[C@@H](CC(=O)NCC3CCCCC3)CC[C@H]21 | 1.09 ± 0.12
O=C(N[C@@H]1CC[C@H](CC(=O)N2CCOCC2)O[C@@H]1CO)c1cccc(F)c1 | 0.988 ± 0.051
C[C@H](NC(=O)C[C@H]1CC[C@H]2[C@@H](COC[C@H](O)CN2Cc2ccc(C(F)(F)F)cc2)O1)c1ccccc1 | 0.938 ± 0.093
C[C@H](CO)N1C[C@H](C)[C@@H](CN(C)S(=O)(=O)c2cccc(F)c2)Oc2ncc(C#CC3(O)CCCC3)cc2C1=O | 0.941 ± 0.062
C[C@H]1COCc2cnnn2CC[C@H](Cc2ccccc2)C(=O)N1 | 1.1 ± 0.0052
CO[C@@H](CN(C)C(=O)c1cnccn1)[C@H](C)CN([C@H](C)CO)S(=O)(=O)c1ccccc1 | 1.1746 ± 0.0011
C[C@H](CO)N1C[C@H](C)[C@@H](CN(C)Cc2ccc(Oc3ccccc3)cc2)Oc2c(NS(=O)(=O)c3cn(C)cn3)cccc2C1=O | 1.13 ± 0.12
O=C(c1ccccn1)N1C[C@H]2[C@@H](c3ccccc31)[C@H](CO)N2C(=O)C1CCCCC1 | 1.027 ± 0.007
O=C(C[C@H]1C[C@H]2c3cc(NS(=O)(=O)c4ccccc4)ccc3O[C@H]2[C@@H](CO)O1)N1CCOCC1 | 0.985 ± 0.031
COc1cccc(C#Cc2ccc3c(c2)[C@H]2[C@H](CCN2C(=O)Cc2ccccc2)[C@@H](CO)N3C)c1 | 1.07 ± 0.025
COCC#Cc1ccc([C@H]2[C@H]3CN(C(=O)Nc4ccccc4F)CC(=O)N3[C@H]2CO)cc1 | 1.01 ± 0.062
COc1cccc(NC(=O)N2C[C@H](O)COC[C@@H]3O[C@@H](CC(=O)N(C)C)CC[C@H]32)c1 | 1.03 ± 0.12
N#C[C@@H]1[C@H](c2ccccc2-c2ccc(F)cc2)[C@H](CO)N1C(=O)Cc1cccnc1 | 1.17 ± 0.12
CCCC(=O)Nc1ccc2c(c1)C(=O)N(C)[C@H]1CC[C@@H](CC(=O)N3CCCCC3)O[C@H]1CO2 | 1.19 ± 0.022
C[C@@H]1CCCCO[C@@H](CN(C)Cc2ccc(C(=O)Nc3ccccc3N)cc2)[C@@H](C)CN([C@H](C)CO)C(=O)c2cc(NC(=O)CCC(F)(F)F)ccc2O1 | 1.06 ± 0.093
CCc1cnc(N2[C@H](C#N)[C@@H](c3ccc(C4=CCCCC4)cc3)[C@@H]2CO)s1 | 1.08 ± 0.095
CCCNC(=O)Nc1ccc2c(c1)OC[C@@H](C)N(S(C)(=O)=O)C[C@H](C)[C@@H](OC)CN(C)C2=O | 1.02 ± 0.045
CN1c2ccc(Br)cc2[C@@H]2[C@@H](CCN2C(=O)C2CCC2)[C@@H]1CO | 1.124 ± 0.0024
C[C@H](CO)N1C[C@H](C)[C@@H](CN(C)C(=O)NC2CCCC2)Oc2cc(-c3cncnc3)ccc2S1(=O)=O | 0.995 ± 0.034
C[C@@H]1CN([C@@H](C)CO)C(=O)c2cccc(NS(=O)(=O)c3ccc(F)cc3)c2O[C@H]1CN(C)Cc1ccc(Cl)c(Cl)c1 | 0.986 ± 0.044
CCS(=O)(=O)Nc1ccc2c(c1)C(=O)N(C)[C@H]1CC[C@H](CC(=O)N[C@@H]3CCN(Cc4ccccc4)C3)O[C@H]1CO2 | 1.09 ± 0.072
O=C(C1CC1)N1C[C@H]2[C@@H](c3ccccc31)[C@@H](CO)N2C(=O)c1ccccc1 | 0.985 ± 0.043
